Here are results for 167 variants from the RNAGym collection of RNA variant scans (doi:10.1101/gad.245936.114).

Variants at the background level are over-represented here.

B1: tRNA (parent)
chain: CUCUCGGUAGCCAAGUUGGUUUAAGGCGCAAGACUUUAAUUUAUCACUACGAAAUCUUGAGAUCGGGCGUUCGACUCGCCCCCGGGAGAUUUUUUCCUCGAGCAA

This series covers variants of B1. The experiment in a line: nonsense suppression (GFP-seq) (ratio to wild type); higher = more function; SUP4oc tRNA, yeast GFP reporter sort-seq. Put shortly:
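To measure nonsense suppression, tRNA variants from a library carrying ~3% random mutations were integrated into the yeast genome alongside RFP and a GFP ochre reporter under galactose control. Growth took place in raffinose/galactose medium supplemented with 80 mg/L adenine, followed by sorting into GFP/RFP bins and Illumina sequencing of each bin (phred ≥30). For each variant with ≥100 reads and ≥30 cells, the bin median GFP/RFP values were weighted by its estimated cell share per bin and referenced to the unmutated parent tRNA.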
In the case of A23C C29G G61A G73A, the nonsense suppression was ≤ 0.026.

Consider U16C G19U G32A U35G C80G, for which the nonsense suppression is ≤ 0.026.

Consider G32A A74C, for which the nonsense suppression was ≤ 0.026.

Regarding U57C U58C C68G C81A, the nonsense suppression was ≤ 0.026.

G15C U76G: the nonsense suppression was ≤ 0.026.

As to C3U U21G, the nonsense suppression turned out to be 0.137.

For U2A C5U U21A U71A, the nonsense suppression is ≤ 0.026.

G15C G25U: the nonsense suppression was ≤ 0.026.

Regarding U57C A87G, the nonsense suppression was 0.0399.

Regarding U57G G85C, the nonsense suppression is ≤ 0.026.

Regarding G10A A23C G61A A62C, the nonsense suppression is ≤ 0.026.

Turning to G10U G65C, the nonsense suppression was ≤ 0.026.

Regarding A14C A30G A33U U35G, the nonsense suppression was ≤ 0.026.

As to A60U U71G G85U, the nonsense suppression was ≤ 0.026.

G66U C82A: the nonsense suppression is ≤ 0.026.

Take G15U C29A U58G G65C: the nonsense suppression was ≤ 0.026.

In the case of A9U U16G, the nonsense suppression came out at 0.202.

On to C12U A13G G25U, for which the nonsense suppression was ≤ 0.026.

As to C3U G19C U58C A62U, the nonsense suppression is ≤ 0.026.

Consider A31C U35C A60G G88A A89C, for which the nonsense suppression was ≤ 0.026.

Take C3U G10C U17G U22A G25C: the nonsense suppression was ≤ 0.026.

Take U57A A60U U71C U76G: the nonsense suppression is ≤ 0.026.

U8G G15C A24C U63C U71C: the nonsense suppression is ≤ 0.026.

Take C12G A87C: the nonsense suppression was ≤ 0.026.

G67C G69A A74C: the nonsense suppression is ≤ 0.026.

U55G G84A: the nonsense suppression is ≤ 0.026.

As to U8A G78C, the nonsense suppression was ≤ 0.026.

For A23U U35A C81A, the nonsense suppression is ≤ 0.026.

As to G7A C56G C79G C81A, the nonsense suppression was ≤ 0.026.

With U2C U58A G86C, the nonsense suppression is ≤ 0.026.

G59C G65C: the nonsense suppression is ≤ 0.026.

Consider C1U A54U A74G, for which the nonsense suppression was ≤ 0.026.

Consider A30G A31C G65A C81G A89G, for which the nonsense suppression is ≤ 0.026.

For the variant G6C U21C, the nonsense suppression is ≤ 0.026.

In the case of G6C U21G, the nonsense suppression was ≤ 0.026.

Turning to U22G G86C, the nonsense suppression was ≤ 0.026.

For U4G A60C G85A, the nonsense suppression is ≤ 0.026.

In the case of G26C A30G G69C G84A, the nonsense suppression is ≤ 0.026.

As for U2A G59U C80A G84A, the nonsense suppression is ≤ 0.026.

Turning to A31C A60U, the nonsense suppression came out at 0.222.

As to G61A G65U, the nonsense suppression was ≤ 0.026.

For C3U G15A U20G, the nonsense suppression is ≤ 0.026.

As to G10U A14C C56A, the nonsense suppression was ≤ 0.026.

G26C C34G C75A A87G: the nonsense suppression was ≤ 0.026.

For A60U U63A G69U, the nonsense suppression is ≤ 0.026.

For C3A A33U C79U, the nonsense suppression is ≤ 0.026.

As to A31U A33G, the nonsense suppression was ≤ 0.026.

For C5U C11G, the nonsense suppression was ≤ 0.026.

For the variant A14U G19A C27A, the nonsense suppression was ≤ 0.026.

Consider U2C U58A A60C, for which the nonsense suppression was ≤ 0.026.

For C5U A9U G18U, the nonsense suppression is ≤ 0.026.

Take C79A G86A: the nonsense suppression is ≤ 0.026.

For the variant A14C A24C, the nonsense suppression is ≤ 0.026.

Take G6C A89G: the nonsense suppression was ≤ 0.026.

In the case of G15U U63C G69C, the nonsense suppression is ≤ 0.026.

As for U20A A24U U63A, the nonsense suppression is ≤ 0.026.

On to U17G U22A G67U U70G U71G, for which the nonsense suppression was ≤ 0.026.

On to C34U C56A G61C, for which the nonsense suppression is ≤ 0.026.

U2A G32C: the nonsense suppression is ≤ 0.026.

For C5U C29U A54C C64U A87U, the nonsense suppression was ≤ 0.026.

C12G A33U U57C: the nonsense suppression was ≤ 0.026.

For G26U U70C U71G, the nonsense suppression was ≤ 0.026.

Turning to U21G U55C U57C G78C, the nonsense suppression was ≤ 0.026.

With C12U U16A U58C, the nonsense suppression is ≤ 0.026.

Consider A30C G85U, for which the nonsense suppression is ≤ 0.026.

Regarding G18C U21G A24C A33U U57C C75U, the nonsense suppression is ≤ 0.026.

With U8G A33G, the nonsense suppression was ≤ 0.026.

For G26C G59C G88A, the nonsense suppression is ≤ 0.026.

For the variant G19U A62U G65A A87C, the nonsense suppression is ≤ 0.026.

As to C3U A24G, the nonsense suppression is ≤ 0.026.

In the case of C3U C11A A13G G85C, the nonsense suppression is ≤ 0.026.

On to C1G U8C G59C, for which the nonsense suppression is ≤ 0.026.

Regarding G19C C27G A30G U58G U71C, the nonsense suppression was ≤ 0.026.

Turning to A23G G67A, the nonsense suppression is ≤ 0.026.

Take C5A G25A G28U G59C C81U: the nonsense suppression was ≤ 0.026.

Turning to U35A G66A, the nonsense suppression is ≤ 0.026.

For the variant U2A G67C G84C, the nonsense suppression is ≤ 0.026.

For the variant C27A A31G C80A, the nonsense suppression is ≤ 0.026.

With C27U A33C, the nonsense suppression is ≤ 0.026.

Regarding G6U G69C C77A, the nonsense suppression was ≤ 0.026.

For the variant C11A G61A, the nonsense suppression is 0.22.

C1A G18A G65A C68G: the nonsense suppression is ≤ 0.026.

G59U G61C C79U: the nonsense suppression is ≤ 0.026.

Regarding A60U C79U C80A, the nonsense suppression was ≤ 0.026.

For C27A A31U G59C G66C C79A, the nonsense suppression is ≤ 0.026.

With C5U G6U G7A, the nonsense suppression is ≤ 0.026.

A24G G26A U63C C64G: the nonsense suppression was ≤ 0.026.

For C77G C82G, the nonsense suppression was ≤ 0.026.

As for A9G C11G, the nonsense suppression was ≤ 0.026.

In the case of U2C C11U G73U U76G G85A, the nonsense suppression was ≤ 0.026.

In the case of G7U C34U U57G, the nonsense suppression was ≤ 0.026.

Regarding G18C G88A, the nonsense suppression was 0.135.

C3G G25U: the nonsense suppression is ≤ 0.026.

Consider U4G A87C, for which the nonsense suppression was found to be 0.0794.

Consider A13U G15U C27U U70C, for which the nonsense suppression is ≤ 0.026.

On to C12A U17G U22G G67C, for which the nonsense suppression is ≤ 0.026.

Take A13G U35C U71C: the nonsense suppression is ≤ 0.026.

Take C11U A33C A74U C75G: the nonsense suppression was ≤ 0.026.

Turning to C3U G6C G15A G32C U63A C64A U70A, the nonsense suppression is ≤ 0.026.

Regarding A23G U70C U71A, the nonsense suppression was ≤ 0.026.

For the variant C68A G69U U76A C81G, the nonsense suppression was ≤ 0.026.

For the variant G61U C83G, the nonsense suppression is ≤ 0.026.

As to C34U G61C, the nonsense suppression amounted to 0.0481.

On to G7U G28U U57G, for which the nonsense suppression was ≤ 0.026.

For A14U C34U C75A, the nonsense suppression is ≤ 0.026.

Take U21G A62G: the nonsense suppression is ≤ 0.026.

As for G28U A33U, the nonsense suppression is ≤ 0.026.

As to G67A G88C, the nonsense suppression was ≤ 0.026.

As for U17C U76C, the nonsense suppression was 1.09.

Turning to G18A C83A A89G, the nonsense suppression was ≤ 0.026.

Consider U8C G15A A31U, for which the nonsense suppression was ≤ 0.026.

For U8G G28A A31G U35G, the nonsense suppression is ≤ 0.026.

Take C5U U71G G78C: the nonsense suppression is ≤ 0.026.

Regarding A30C C56U G65C, the nonsense suppression was ≤ 0.026.

As for G6U G10U, the nonsense suppression was ≤ 0.026.

Consider G7A U20A A60U U70C, for which the nonsense suppression is ≤ 0.026.

In the case of C3U A14U, the nonsense suppression was ≤ 0.026.

As to C3A U20C G25C, the nonsense suppression is ≤ 0.026.

In the case of G7U C11A, the nonsense suppression was ≤ 0.026.

Consider U2A U4G C79A G86U, for which the nonsense suppression is ≤ 0.026.

U16C C34A G67U G69U C75U: the nonsense suppression is ≤ 0.026.

For the variant G10U A31C U58A, the nonsense suppression was ≤ 0.026.

U55A U71A: the nonsense suppression was ≤ 0.026.

Turning to U57G G61C A62G G65U, the nonsense suppression is ≤ 0.026.

On to C12A A62G C82G, for which the nonsense suppression is ≤ 0.026.

As for G25C C34A A87U, the nonsense suppression is ≤ 0.026.

Take U63G G73U G84C: the nonsense suppression is ≤ 0.026.

For the variant A54G C72A, the nonsense suppression is ≤ 0.026.

Take G69U U71C: the nonsense suppression was ≤ 0.026.

C11A G15U C56A U58C: the nonsense suppression is ≤ 0.026.

Turning to G15C G65A G78A C80A, the nonsense suppression was ≤ 0.026.

Take A31C C83G: the nonsense suppression was ≤ 0.026.

With C12A A33C, the nonsense suppression is ≤ 0.026.

As for U21G G28U C56G G65C, the nonsense suppression was ≤ 0.026.

With A23U U58G G85U, the nonsense suppression is ≤ 0.026.

In the case of A31G C72G, the nonsense suppression was ≤ 0.026.

As for A31U U70A, the nonsense suppression is ≤ 0.026.

C11U U16A G69C C80G G88A: the nonsense suppression is ≤ 0.026.

For the variant U21G C27G G86U, the nonsense suppression was ≤ 0.026.

As for U58G C83A, the nonsense suppression is ≤ 0.026.

In the case of U4A A9U U58G, the nonsense suppression was ≤ 0.026.

C75G C83G: the nonsense suppression was ≤ 0.026.

As for A9G A89U, the nonsense suppression is ≤ 0.026.

G66A G67A U70C C79G G84U: the nonsense suppression is ≤ 0.026.

In the case of A14G U57G G61A, the nonsense suppression was ≤ 0.026.

For G25U G59U U76G, the nonsense suppression was ≤ 0.026.

As to C1U A24U A89U, the nonsense suppression was ≤ 0.026.

With A13U G15C U76A G85C, the nonsense suppression is ≤ 0.026.

As for U22C A24U C27A A31U A60C, the nonsense suppression is ≤ 0.026.

Turning to G19U A31G, the nonsense suppression was ≤ 0.026.

In the case of G25C G61A A62G, the nonsense suppression was ≤ 0.026.

For the variant C72A G78C, the nonsense suppression is ≤ 0.026.

Turning to C1A U8G C68G, the nonsense suppression was ≤ 0.026.

Consider A60U G73A, for which the nonsense suppression worked out at 0.222.

For A30U A60G, the nonsense suppression was 0.27.

C12A G19C G67U U70C G84C: the nonsense suppression is ≤ 0.026.

On to C5U G6C A13C C27U C34A U58G A60C C68A, for which the nonsense suppression is ≤ 0.026.

Turning to C3G U35G C81U, the nonsense suppression was ≤ 0.026.

As for U58A G85U, the nonsense suppression was ≤ 0.026.

Take G19U U21G U22C G66U: the nonsense suppression is ≤ 0.026.

With C1A U55A U76C, the nonsense suppression was ≤ 0.026.

For the variant A13C G65C G66A A74C C75G, the nonsense suppression is ≤ 0.026.

On to A14G C68A, for which the nonsense suppression was ≤ 0.026.

As to U2G U55G, the nonsense suppression was ≤ 0.026.

On to U8G A14U C83U, for which the nonsense suppression was ≤ 0.026.

For the variant G7A C27U G67A, the nonsense suppression is ≤ 0.026.

On to C3G U17G G84C, for which the nonsense suppression is ≤ 0.026.
